This is one part of the list. Many values rest on one well or one pass, so single values are uncertain.
Tested on: A2058
Assay: cell count relative to DMSO control; melanoma cells; higher = more viable cells
Conditions: library dose: low library concentration; 72 h
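Further: cell number obtained by counting DAPI-stained nuclei in high-throughput microscope images with image analysis software, screen run in 1,536-well plates.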

Compound	cell count
CC(C)(C)c1cnc(CSc2cnc(NC(=O)C3CCNCC3)s2)o1 + NC(=O)Nc1cc(-c2cccc(F)c2)sc1C(=O)N[C@H]1CCCNC1 [AZD7762] (first compound 0.01 µM, partner dose 0.02 µM)	114%
CN(NC(=O)CC(=O)NN(C)C(=S)c1ccccc1)C(=S)c1ccccc1 + COc1cc2c(Oc3ccc4[nH]c(C)cc4c3F)ncnc2cc1OCCCN1CCCC1 [cediranib] (first compound 0.006 µM, partner dose 0.4 µM)	61.6%
CCCCCCCCc1ccc(CCC(N)(CO)CO)cc1 [fingolimod] + C[C@@H]1CCN(C(=O)CC#N)C[C@@H]1N(C)c1ncnc2[nH]ccc12 [CP690550] (first compound 2 µM, partner dose 1 µM)	87.5%
CCCCCCCCc1ccc(CCC(N)(CO)CO)cc1 [fingolimod] + COc1cc2c(Oc3ccc4[nH]c(C)cc4c3F)ncnc2cc1OCCCN1CCCC1 [cediranib] (first compound 2 µM, partner dose 0.4 µM)	94%
CC(C)(C)c1cnc(CSc2cnc(NC(=O)C3CCNCC3)s2)o1 + NCC(=O)Nc1ccc(-n2nc(C(F)(F)F)cc2-c2ccc3c(ccc4ccccc43)c2)cc1 [OSU03012] (first compound 0.01 µM, partner dose 1 µM)	96.8%
CCCCCCCCc1ccc(CCC(N)(CO)CO)cc1 [fingolimod] + NCC(=O)Nc1ccc(-n2nc(C(F)(F)F)cc2-c2ccc3c(ccc4ccccc43)c2)cc1 [OSU03012] (first compound 2 µM, partner dose 1 µM)	91.6%
CCCCCCCCc1ccc(CCC(N)(CO)CO)cc1 [fingolimod] + NC(=O)Nc1cc(-c2cccc(F)c2)sc1C(=O)N[C@H]1CCCNC1 [AZD7762] (first compound 2 µM, partner dose 0.02 µM)	108%
CCCCCCCCc1ccc(CCC(N)(CO)CO)cc1 [fingolimod] + CO[C@@H]1[C@H](N(C)C(=O)c2ccccc2)C[C@H]2O[C@]1(C)n1c3ccccc3c3c4c(c5c6ccccc6n2c5c31)C(=O)NC4 [Midostaurin] (first compound 2 µM, partner dose 0.08 µM)	73.4%
Cc1ccc(NC(=O)c2cccc(N(C)C)c2)cc1NC(=O)c1ccc(O)cc1 + CN(C)S(=O)(=O)c1ccc2c(c1)/C(=C/c1cc3c([nH]1)CCCC3)C(=O)N2 [SU6656] (first compound 2 µM, partner dose 0.4 µM)	92.4%
NC(=O)c1ccc(N(C(N)=O)c2c(F)cccc2F)nc1-c1ccc(F)cc1F + OCCn1cc(-c2cnc3nnn(Cc4ccc5ncccc5c4)c3n2)cn1 [PF04217903] (first compound 0.4 µM, partner dose 1 µM)	105%
CC(C)(C)c1cnc(CSc2cnc(NC(=O)C3CCNCC3)s2)o1 + Cc1cc(N2CCOCC2)cc2[nH]c(-c3c(NC[C@@H](O)c4cccc(Cl)c4)cc[nH]c3=O)nc12 [BMS536924] (first compound 0.01 µM, partner dose 0.2 µM)	87.8%
NC(=O)c1ccc(N(C(N)=O)c2c(F)cccc2F)nc1-c1ccc(F)cc1F + NCC(=O)Nc1ccc(-n2nc(C(F)(F)F)cc2-c2ccc3c(ccc4ccccc43)c2)cc1 [OSU03012] (first compound 0.4 µM, partner dose 1 µM)	106%

Tested on: A375
Assay: as above
Conditions: library dose: low library concentration; 72 h

Compound	cell count
NC(=O)c1ccc(N(C(N)=O)c2c(F)cccc2F)nc1-c1ccc(F)cc1F + Cn1cncc1[C@@](N)(c1ccc(Cl)cc1)c1ccc2c(c1)c(-c1cccc(Cl)c1)cc(=O)n2C [tipifarnib] (first compound 0.4 µM, partner dose 0.01 µM)	80.5%
NC(=O)c1ccc(N(C(N)=O)c2c(F)cccc2F)nc1-c1ccc(F)cc1F + CO[C@@H]1[C@H](N(C)C(=O)c2ccccc2)C[C@H]2O[C@]1(C)n1c3ccccc3c3c4c(c5c6ccccc6n2c5c31)C(=O)NC4 [Midostaurin] (first compound 0.4 µM, partner dose 0.08 µM)	87.5%
NC(=O)c1ccc(N(C(N)=O)c2c(F)cccc2F)nc1-c1ccc(F)cc1F + CN(NC(=O)CC(=O)NN(C)C(=S)c1ccccc1)C(=S)c1ccccc1 [STA4783] (first compound 0.4 µM, partner dose 0.006 µM)	23.7%
Cc1ccc(NC(=O)c2cccc(N(C)C)c2)cc1NC(=O)c1ccc(O)cc1 + O=C(O)c1ccc(-c2c[nH]c3ncc(-c4ccccc4)cc23)cc1C1CCCC1 [GSK650394] (first compound 2 µM, partner dose 0.16 µM)	98.9%
NC(=O)c1ccc(N(C(N)=O)c2c(F)cccc2F)nc1-c1ccc(F)cc1F + Cc1cc(N2CCOCC2)cc2[nH]c(-c3c(NC[C@@H](O)c4cccc(Cl)c4)cc[nH]c3=O)nc12 [BMS536924] (first compound 0.4 µM, partner dose 0.2 µM)	87.8%
NC(=O)c1ccc(N(C(N)=O)c2c(F)cccc2F)nc1-c1ccc(F)cc1F + COc1cc(Nc2ncc(F)c(Nc3ccc4c(n3)NC(=O)C(C)(C)O4)n2)cc(OC)c1OC [Tamatinib] (first compound 0.4 µM, partner dose 0.4 µM)	84.4%
CCCCCCCCc1ccc(CCC(N)(CO)CO)cc1 [fingolimod] + CN(C)S(=O)(=O)c1ccc2c(c1)/C(=C/c1cc3c([nH]1)CCCC3)C(=O)N2 [SU6656] (first compound 2 µM, partner dose 0.4 µM)	64.5%
CCCCCCCCc1ccc(CCC(N)(CO)CO)cc1 [fingolimod] + OCCn1cc(-c2cnc3nnn(Cc4ccc5ncccc5c4)c3n2)cn1 [PF04217903] (first compound 2 µM, partner dose 1 µM)	61.7%
NC(=O)c1ccc(N(C(N)=O)c2c(F)cccc2F)nc1-c1ccc(F)cc1F + NC(=O)Nc1cc(-c2cccc(F)c2)sc1C(=O)N[C@H]1CCCNC1 [AZD7762] (first compound 0.4 µM, partner dose 0.02 µM)	67.3%
NC(=O)c1ccc(N(C(N)=O)c2c(F)cccc2F)nc1-c1ccc(F)cc1F + O=C(O)c1ccc(-c2c[nH]c3ncc(-c4ccccc4)cc23)cc1C1CCCC1 [GSK650394] (first compound 0.4 µM, partner dose 0.16 µM)	101%
CCCCCCCCc1ccc(CCC(N)(CO)CO)cc1 [fingolimod] + COc1cc(Nc2ncc(F)c(Nc3ccc4c(n3)NC(=O)C(C)(C)O4)n2)cc(OC)c1OC [Tamatinib] (first compound 2 µM, partner dose 0.4 µM)	61.3%
CC(C)(C)c1cnc(CSc2cnc(NC(=O)C3CCNCC3)s2)o1 + O=C(Nc1cccc(Cl)c1)Nc1ncc(CCNc2ncnc3ccsc23)s1 [SNS314] (first compound 0.01 µM, partner dose 0.0008 µM)	106%
Cc1ccc(NC(=O)c2cccc(N(C)C)c2)cc1NC(=O)c1ccc(O)cc1 + COc1cc2c(Oc3ccc4[nH]c(C)cc4c3F)ncnc2cc1OCCCN1CCCC1 [cediranib] (first compound 2 µM, partner dose 0.4 µM)	84.2%
NC(=O)c1ccc(N(C(N)=O)c2c(F)cccc2F)nc1-c1ccc(F)cc1F + C[C@@H]1CCN(C(=O)CC#N)C[C@@H]1N(C)c1ncnc2[nH]ccc12 [CP690550] (first compound 0.4 µM, partner dose 1 µM)	101%
NC(=O)c1ccc(N(C(N)=O)c2c(F)cccc2F)nc1-c1ccc(F)cc1F + CC(C)(C)c1cnc(CSc2cnc(NC(=O)C3CCNCC3)s2)o1 [SNS-032] (first compound 0.4 µM, partner dose 0.01 µM)	90.5%
CCCCCCCCc1ccc(CCC(N)(CO)CO)cc1 [fingolimod] + CC1(C)NC(=O)N(c2ccc([N+](=O)[O-])c(C(F)(F)F)c2)C1=O [nilutamide] (first compound 2 µM, partner dose 1 µM)	67.2%
Cc1ccc(NC(=O)c2cccc(N(C)C)c2)cc1NC(=O)c1ccc(O)cc1 + CO[C@@H]1[C@H](N(C)C(=O)c2ccccc2)C[C@H]2O[C@]1(C)n1c3ccccc3c3c4c(c5c6ccccc6n2c5c31)C(=O)NC4 [Midostaurin] (first compound 2 µM, partner dose 0.08 µM)	99%
CCCCCCCCc1ccc(CCC(N)(CO)CO)cc1 [fingolimod] + Cc1cc(N2CCOCC2)cc2[nH]c(-c3c(NC[C@@H](O)c4cccc(Cl)c4)cc[nH]c3=O)nc12 [BMS536924] (first compound 2 µM, partner dose 0.2 µM)	60.6%
CCCCCCCCc1ccc(CCC(N)(CO)CO)cc1 [fingolimod] + O=C(O)c1ccc(-c2c[nH]c3ncc(-c4ccccc4)cc23)cc1C1CCCC1 [GSK650394] (first compound 2 µM, partner dose 0.16 µM)	56.1%
Cc1ccc(NC(=O)c2cccc(N(C)C)c2)cc1NC(=O)c1ccc(O)cc1 + OCCn1cc(-c2cnc3nnn(Cc4ccc5ncccc5c4)c3n2)cn1 [PF04217903] (first compound 2 µM, partner dose 1 µM)	98.2%
NC(=O)c1ccc(N(C(N)=O)c2c(F)cccc2F)nc1-c1ccc(F)cc1F + C=CCn1c(=O)c2cnc(Nc3ccc(N4CCN(C)CC4)cc3)nc2n1-c1cccc(C(C)(C)O)n1 [MK1775] (first compound 0.4 µM, partner dose 0.02 µM)	42.5%
